Experimental data published in the supplement of paper PMC7826260.
Some of the results follow. Viral Rep nickase domains cut single-stranded DNA in vitro (3 µM enzyme, 1 h, 37 °C); shown is the middle of each 90-letter strand. The score is log2 (uncut reads / reads without enzyme); more negative means more cut, near 0 not cut, and no call is made. The scaling is to total reads, so uncut sequences can rise above 0 when many others are cut.

Key:
Assay in all cases: uncleaved DNA left, log2 of reads against the no-enzyme library (log2 ratio); higher = less cleavage (more negative = more Rep cleavage of the k-mer); sequences stand for … in CTCGTCCG…ACCGGAGA
[1] = system: T1, Rep nickase domain of Muscovy duck circovirus
T1 sequence (residues 1-111 of Rep, tag left off): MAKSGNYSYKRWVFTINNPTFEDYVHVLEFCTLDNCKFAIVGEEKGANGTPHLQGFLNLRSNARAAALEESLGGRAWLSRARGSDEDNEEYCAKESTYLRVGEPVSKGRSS
Description: (§1)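 A pool of 90-nt single-stranded DNAs with seven random bases just before the constant AC of the nick site (name = the seven bases) was cut by 3 µM recombinant His6-SUMO-tagged Rep nickase domain (300 nM DNA, 50 mM HEPES pH 8.0, 50 mM NaCl, 1 mM MnCl2, 1 h, 37 °C, three replicates). Uncut DNA was amplified and sequenced.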

[2] = system: T2, Rep nickase domain of banana bunchy top virus
T2 sequence (residues 1-94 of Rep, tag left off): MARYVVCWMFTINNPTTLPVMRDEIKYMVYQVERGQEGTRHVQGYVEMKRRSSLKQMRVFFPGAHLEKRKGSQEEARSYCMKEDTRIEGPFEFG
Description: as §1

[3] = system: T3, Rep nickase domain of cabbage leaf curl virus
T3 sequence (residues 1-116 of Rep, tag left off): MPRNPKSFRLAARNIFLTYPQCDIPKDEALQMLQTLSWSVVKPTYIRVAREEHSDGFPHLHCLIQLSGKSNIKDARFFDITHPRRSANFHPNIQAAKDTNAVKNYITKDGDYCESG
Description: as §1

[4] = system: T4, Rep nickase domain of chickpea chlorotic dwarf virus
T4 sequence (residues 1-124 of Rep, tag left off): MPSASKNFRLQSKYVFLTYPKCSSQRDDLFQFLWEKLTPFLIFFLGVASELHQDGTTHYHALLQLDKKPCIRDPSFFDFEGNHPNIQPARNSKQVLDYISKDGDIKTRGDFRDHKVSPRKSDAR
Description: as §1

[5] = system: T5, Rep nickase domain of faba bean necrotic yellows virus
T5 sequence (residues 1-98 of Rep, tag left off): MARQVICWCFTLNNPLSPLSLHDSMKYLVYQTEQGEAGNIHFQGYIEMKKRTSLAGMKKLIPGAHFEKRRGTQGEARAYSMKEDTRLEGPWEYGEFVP
Description: as §1

[6] = system: T6, Rep nickase domain of maize striate mosaic virus
T6 sequence (residues 1-117 of Rep, tag left off): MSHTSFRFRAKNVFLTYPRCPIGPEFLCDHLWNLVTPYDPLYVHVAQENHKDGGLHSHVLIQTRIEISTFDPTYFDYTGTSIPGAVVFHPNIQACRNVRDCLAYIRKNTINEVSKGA
Description: as §1

[7] = system: T7, Rep nickase domain of porcine circovirus 2
T7 sequence (residues 2-116 of Rep, tag left off): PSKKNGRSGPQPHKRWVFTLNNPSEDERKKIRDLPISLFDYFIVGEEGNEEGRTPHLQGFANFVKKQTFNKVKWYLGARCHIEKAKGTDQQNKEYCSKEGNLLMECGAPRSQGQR
Description: as §1

[8] = system: T8, Rep nickase domain of tomato golden mosaic virus
T8 sequence (residues 1-124 of Rep, tag left off): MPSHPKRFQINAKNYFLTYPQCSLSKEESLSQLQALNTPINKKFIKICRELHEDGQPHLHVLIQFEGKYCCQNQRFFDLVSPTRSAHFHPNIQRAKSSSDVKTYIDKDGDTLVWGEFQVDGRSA
Description: as §1

[9] = system: T9, Rep nickase domain of tomato yellow leaf curl virus
T9 sequence (residues 1-136 of Rep, tag left off): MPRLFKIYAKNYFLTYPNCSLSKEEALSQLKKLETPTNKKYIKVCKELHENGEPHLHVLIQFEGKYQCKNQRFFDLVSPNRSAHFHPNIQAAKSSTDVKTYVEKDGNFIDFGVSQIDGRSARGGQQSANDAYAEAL
Description: as §1

[10] = system: T10, Rep nickase domain of wheat dwarf virus
T10 sequence (residues 1-137 of Rep, tag left off): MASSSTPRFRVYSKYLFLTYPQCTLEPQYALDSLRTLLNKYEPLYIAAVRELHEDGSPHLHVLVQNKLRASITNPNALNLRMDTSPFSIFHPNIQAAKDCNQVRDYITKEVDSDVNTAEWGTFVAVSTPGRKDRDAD
Description: as §1

| Sequence | uncleaved DNA left (log2) [1] | uncleaved DNA left (log2) [2] | uncleaved DNA left (log2) [3] | uncleaved DNA left (log2) [4] | uncleaved DNA left (log2) [5] | uncleaved DNA left (log2) [6] | uncleaved DNA left (log2) [7] | uncleaved DNA left (log2) [8] | uncleaved DNA left (log2) [9] | uncleaved DNA left (log2) [10] |
| --- | --- | --- | --- | --- | --- | --- | --- | --- | --- | --- |
| CTTCGGA | 0.263 | 0.104 | 0.249 | 0.457 | 0.194 | -0.14 | 0.212 | 0.16 | 0.0341 | 0.0527 |
| ACTTACG | -0.0509 | 0.0699 | -0.723 | 0.218 | -0.0377 | -0.598 | 0.0452 | -0.114 | 0.0148 | -0.0698 |
| CGATTGC | 0.0575 | 0.0901 | -0.472 | -0.177 | 0.0124 | -0.814 | 0.178 | -0.0602 | 0.0463 | 0.0801 |
| GTAAGGT | 0.0375 | 0.067 | -0.193 | -0.852 | -0.0051 | 1.6 | 0.12 | 0.0563 | 0.0356 | -0.0457 |
| ATTCAGG | 0.0221 | 0.0609 | 0.372 | 1.22 | 0.121 | 0.981 | 0.119 | 0.0626 | -0.0972 | 0.0574 |
| AGGCTTC | -0.104 | -0.0352 | 0.31 | 0.364 | -0.0937 | 0.38 | -0.0246 | -0.0826 | -0.0244 | -0.138 |
| ATCGCAG | -0.0259 | -0.0384 | -0.77 | -0.619 | -0.0201 | -1.1 | 0.0157 | -0.184 | -0.111 | -0.12 |
| TTTCCGG | -0.0426 | 0.0376 | 0.547 | 1.48 | -0.0586 | 2.02 | 0.0713 | 0.102 | -0.0148 | 0.0963 |
| ATATACA | -0.122 | -0.0509 | -0.261 | -2.23 | -0.0628 | -0.697 | -0.188 | 0.107 | -0.125 | 0.0196 |
| CATTGGA | 0.094 | -0.0525 | -0.717 | -0.691 | 0.057 | -1.16 | -0.155 | 0.032 | 0.158 | 0.095 |
| CAGAGGG | 0.0952 | 0.0245 | -0.449 | -0.325 | 0.197 | -0.93 | 0.161 | 0.113 | 0.00912 | -0.0415 |
| GCAAATG | -0.0404 | -0.0542 | -0.282 | 0.0566 | 0.12 | -0.52 | 0.109 | 0.0779 | -0.0789 | -0.0224 |
| CGGGCAA | 0.159 | 0.0929 | 0.824 | 1.85 | 0.063 | 2.15 | 0.158 | 0.0061 | 0.109 | 0.172 |
| TTCACGT | 0.0395 | -0.059 | 0.188 | 0.0573 | -0.0304 | 0.37 | 0.00827 | -0.0986 | -0.0563 | -0.0494 |
| GAGGATC | -0.0267 | 0.0647 | 0.614 | 1.52 | 0.057 | 1.84 | 0.096 | -0.0261 | -0.133 | 0.12 |
| AACGTTT | -0.0581 | -0.125 | -0.418 | -2.49 | 0.0209 | -0.107 | -1.03 | -0.00425 | -0.0539 | -0.102 |

| Sequence | uncleaved DNA left (log2) [1] | uncleaved DNA left (log2) [2] | uncleaved DNA left (log2) [3] | uncleaved DNA left (log2) [4] | uncleaved DNA left (log2) [5] | uncleaved DNA left (log2) [6] | uncleaved DNA left (log2) [7] | uncleaved DNA left (log2) [8] | uncleaved DNA left (log2) [9] | uncleaved DNA left (log2) [10] |
| --- | --- | --- | --- | --- | --- | --- | --- | --- | --- | --- |
| TTACTCG | 0.101 | 0.00624 | -0.963 | -1.74 | 0.0305 | -1.32 | 0.0444 | -0.0243 | 0.0109 | 0.0202 |
| TGTTATG | 0.0202 | 0.0201 | -0.237 | -0.523 | 0.00362 | -0.953 | 0.117 | -0.0229 | 0.0277 | -0.0437 |
| TGTGAGT | 0.0593 | -0.0319 | -0.0543 | -0.42 | 0.00206 | -0.759 | -0.0827 | -0.0724 | 0.0216 | -0.0164 |
| CCCCTTA | 0.0412 | -0.039 | 0.14 | -1.01 | 0.105 | -0.264 | -0.201 | -0.0539 | -0.208 | -0.0474 |
| CTTAGAG | 0.16 | 0.104 | -0.49 | -0.452 | 0.14 | -1.03 | 0.24 | 0.161 | 0.084 | 0.172 |
| GTTTGAG | 0.149 | 0.186 | -0.444 | -0.374 | 0.0971 | -0.871 | 0.183 | 0.0876 | 0.132 | 0.0062 |
| GACTTAA | 0.0761 | 0.0464 | 0.249 | 0.485 | 0.0803 | 0.911 | -0.744 | 0.115 | 0.097 | 0.164 |
| AGAAAGT | 0.0479 | -0.0147 | 0.0671 | -0.177 | 0.075 | -0.725 | 0.0194 | 0.0454 | 0.0977 | 0.039 |
| GTGACAA | 0.0911 | 0.192 | 0.73 | 1.81 | 0.00552 | 2.22 | 0.271 | 0.191 | 0.12 | 0.228 |
| GAGACGC | 0.0171 | 0.152 | 0.789 | 1.9 | 0.016 | 1.96 | 0.181 | 0.111 | 0.119 | 0.117 |
| CAAGCCA | 0.0379 | 0.104 | -0.033 | -1.43 | -0.0196 | -0.187 | 0.132 | 0.0102 | 0.00271 | 0.023 |
| CATCACA | 0.0527 | 0.0832 | -0.219 | -2.36 | -0.00782 | -0.675 | -0.0221 | -0.0408 | 0.0148 | -0.0324 |
| GTTTGGA | 0.0485 | 0.00819 | 0.202 | 0.748 | -0.0494 | 1.45 | 0.106 | 0.0713 | -0.035 | -0.0367 |
| TTCTACG | 0.0177 | -0.143 | -0.934 | -1.16 | 0.0638 | -1.27 | 0.0238 | -0.0262 | 0.0231 | -0.215 |
| GGTCAAC | 0.076 | 0.143 | 0.624 | 1.37 | 0.0203 | 1.95 | 0.223 | 0.0473 | 0.0401 | 0.123 |
